Here are results for 110 compounds from PubChem BioAssay AID488969 (Vanderbilt High Throughput Screening Facility, 2010).

The full ranking holds about 110,000 compounds; the median of “z-score” is about -0.1, and the highest 2% start at about 2. This is one part of the list. Active and inactive are the calls of the source.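 Rule for the calls: active = z-score in the third read window above 3 or below -3; inactive = the rest.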

The target in the test is Metabotropic glutamate receptor 8 (Rattus norvegicus) (UniProt P70579). In words: mGluR8 Gi/Go-coupled signaling modulation – cell-based, rat, thallium flux, HTS, primary screen (AID 488969). To be noted: HEK293 rat mGluR8, GIRK (G protein-gated inwardly rectifying potassium channel) thallium flux, FluoZin2; at 10 µM; stronger effect = higher value; submaximal glutamate (EC20) added with thallium.
UniProt P70579, sequence (P70579 whole entry, looked up): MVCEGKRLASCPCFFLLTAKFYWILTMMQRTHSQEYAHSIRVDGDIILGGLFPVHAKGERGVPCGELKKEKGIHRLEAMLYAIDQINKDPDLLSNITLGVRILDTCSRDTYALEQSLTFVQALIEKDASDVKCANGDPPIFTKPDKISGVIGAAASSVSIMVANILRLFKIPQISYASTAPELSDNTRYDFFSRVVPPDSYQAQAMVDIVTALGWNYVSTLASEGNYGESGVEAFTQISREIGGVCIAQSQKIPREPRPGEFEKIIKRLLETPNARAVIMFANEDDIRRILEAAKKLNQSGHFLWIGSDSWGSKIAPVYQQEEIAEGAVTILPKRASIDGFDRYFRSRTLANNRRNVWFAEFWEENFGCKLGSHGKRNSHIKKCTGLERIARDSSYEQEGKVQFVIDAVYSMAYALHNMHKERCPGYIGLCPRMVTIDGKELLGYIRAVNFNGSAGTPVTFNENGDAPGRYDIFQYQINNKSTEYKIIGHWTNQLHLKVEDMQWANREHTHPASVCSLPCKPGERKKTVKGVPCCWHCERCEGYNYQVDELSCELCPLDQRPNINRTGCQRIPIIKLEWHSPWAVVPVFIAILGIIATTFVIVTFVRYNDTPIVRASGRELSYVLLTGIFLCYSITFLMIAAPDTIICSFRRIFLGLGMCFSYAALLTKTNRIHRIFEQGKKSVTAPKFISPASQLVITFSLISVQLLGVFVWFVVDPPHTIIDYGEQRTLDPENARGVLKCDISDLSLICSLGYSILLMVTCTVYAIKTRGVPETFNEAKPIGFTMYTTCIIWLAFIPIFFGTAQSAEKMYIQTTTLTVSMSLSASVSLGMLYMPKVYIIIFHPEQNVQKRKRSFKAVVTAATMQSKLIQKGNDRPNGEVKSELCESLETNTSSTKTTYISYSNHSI
For the compound `CCc1ccc2c(c1)C1(NN=C(c3ccccc3)S1)C(=O)N2` (stereo not given), the z-score is 0.104.

Compound `COC(=O)c1ccc(C(C(=O)NC2CCCCC2)N(Cc2ccc(F)cc2)C(=O)Cc2cccs2)cc1` (stereo not given) came in with a z-score of -0.291.

In turn, `Cc1cc(C(=O)N2CCN(c3ccccc3)CC2)no1` came in with a z-score of 0.106.

Take `NC(=O)c1ccccc1N=Cc1ccccn1`: the z-score is -0.317.

`Cc1sc2nc(SCc3nc(-c4ccccc4)no3)n(-c3ccccc3)c(=O)c2c1C` yielded a z-score of -0.000241.

For the compound `COc1ccccc1-c1nc(C#N)c(N2CCC(C(N)=O)CC2)o1`, the z-score is -0.232.

In turn, `CC1CCCN(c2nc3ccccc3nc2C(C#N)S(=O)(=O)c2ccccc2)C1` (stereo not given) had a z-score of -0.527.

Compound `Cc1nc(NCCNC(=O)c2ccco2)c2c(C)c(C)sc2n1` gave a z-score of 0.136.

In the case of `O=C(NC(=S)N1CCN(Cc2ccc3c(c2)OCO3)CC1)c1cccc(Br)c1`, the z-score is active: 9.35.

`O=[N+]([O-])c1cccc(/C(=N/N=C/c2ccccc2Br)C23CN4CN(CN(C4)C2)C3)c1`: the z-score is -0.273.

`CC(C)c1ccc(-c2nn(-c3ccccc3)cc2C2C(C#N)=C(N)OC3=C2C(=O)CC(C)(C)C3)cc1` (stereo not given): the z-score worked out at 0.0702.

The compound `COc1cc(CN2CCN(c3cccc(Cl)c3)CC2)cc(OC)c1OC` returned a z-score of -0.348.

In turn, `COCCn1cc(C(=O)c2ccccc2OCC(=O)Nc2cc(C)on2)cc(C#N)c1=O` showed a z-score of -0.208.

`O=C(CCCCCNc1nc(=S)[nH]c2ccccc12)N1CCN(c2ccccn2)CC1` came in with a z-score of -0.132.

`Cc1oc(-c2ccc(Cl)cc2)nc1CN1CCC(C(=O)NCCCN2CCOCC2)CC1` registered a z-score of -0.804.

For the compound `Cc1cc(C)nc(SCCN2CCOCC2)n1`, the z-score came to 0.716.

`Clc1cc(Cl)c(OCc2nc(-c3ccccn3)no2)cc1Cl` had a z-score of 0.246.

Regarding `CN(CCCCCNC(=O)/C=N/O)Cc1ccccc1`, the z-score was -0.328.

Consider `C=CCc1ccccc1OCC(O)CN(CC)CC` (stereo not given), for which the z-score turned out to be 0.0462.

Consider `O=C(O)CCC(=O)Nc1ccccc1C(=O)NCc1ccco1`, for which the z-score came to 0.0547.

With `Cc1c(C(=O)NCCCN2CCOCC2)oc2c1C1(CCC2)SCCS1`, the z-score is -0.375.

`CCSc1nc(N2CCOCC2)c2c(c1C#N)CC(C)(C)N(C)C2`: the z-score is -0.398.

As to `CCCCCCS(=O)[C@H]1CS(=O)(=O)C[C@@H]1S(=O)CCCCCC` (stereo not given in full), the z-score is -0.0413.

`CCc1ccc(OCC(=O)NC(=S)Nc2ccc(C(C)=O)cc2)c(Br)c1` registered a z-score of -0.0252.

Consider `C=CCN(C(=O)COc1ccccc1)c1nnc(-c2ccncc2)s1`, for which the z-score is -0.0954.

Compound `Cc1ccc(-c2nn3c(=O)c(C)nnc3s2)cc1` showed a z-score of 0.605.

In turn, `Cc1cc(C(=O)COC(=O)c2ccc(N)c([N+](=O)[O-])c2)c(C)n1-c1ccc2c(c1)OCO2` came in with a z-score of 0.133.

For `Cc1ccccc1NC(=S)NC(C)CCc1ccccc1` (stereo not given), the z-score was found to be 0.22.

For the compound `S=c1[nH]nc(COc2ccc3ccccc3c2)o1`, the z-score was found to be 0.0777.

As for `COc1ccc(C)cc1S(=O)(=O)N(C)CC(=O)N1CCC(C)CC1`, the z-score was -0.0521.

On to `CC1(C)CC(=O)c2cc(OCC(=O)NCCN3CCOCC3)ccc2O1`, for which the z-score was -0.0825.

Compound `COc1cc(NC(=O)c2cccnc2Sc2ccc(C)c(C)c2)cc(OC)c1OC` gave a z-score of 0.304.

As to `COc1ccccc1NS(=O)(=O)c1cc(NC(=O)c2cccs2)ccc1N1CCCC1`, the z-score was -0.337.

For the compound `C=CCn1c(SCc2csc(-c3ccc(C)cc3)n2)nnc1-c1ccccc1OC`, the z-score was -0.529.

On to `CC(=O)c1cccc(NC(=O)C2CCCN(S(=O)(=O)c3ccc(F)cc3)C2)c1` (stereo not given), for which the z-score is -1.57.

On to `CCOC(=O)/C=C1\SCC(=O)N1CC(=O)Nc1ccc(C(C)C)cc1`, for which the z-score was -0.00276.

The compound `CS(=O)(=O)N(Cc1ccc(C(=O)NCCSCc2ccco2)cc1)c1ccccc1` registered a z-score of -0.0864.

With `COc1cc(OC)c(C(=O)CCC(=O)O)cc1OC`, the z-score was -0.176.

The compound `O=S(=O)(c1ccc2ccccc2c1)N1C=CC(C(F)(F)F)=NCC1` showed a z-score of -0.382.

As for `COc1ccc(OC)c(C2C(C(C)=O)=C(O)C(=O)N2Cc2cccnc2)c1` (stereo not given), the z-score was determined as 0.268.

On to `COc1cc(OC)c(NC(=O)CS(=O)(=O)Cc2nc(-c3ccc(C)cc3)oc2C)cc1Cl`, for which the z-score was -0.345.

`Cc1cc(OC(=O)c2ccc(S(=O)(=O)N(C)C)cc2)cc(=O)o1` showed a z-score of -0.362.

In turn, `CCCCn1c(SCC(=O)c2ccc(OC)cc2OC)nc2cc(S(N)(=O)=O)ccc21` displayed a z-score of 0.146.

As for `COc1ccccc1Nc1nc2ccc(C)cc2cc1C#N`, the z-score is -0.577.

In turn, `O=[n+]1c2c(n([O-])c3c1CCCC3)CCCC2` gave a z-score of -0.137.

`CSc1nc(N)nc(SCC(=O)OC(C)C)c1C#N` returned a z-score of -0.323.

Compound `CC(=O)NC(CC(=O)c1ccc([N+](=O)[O-])cc1)C(Cl)(Cl)Cl` (stereo not given) yielded a z-score of 0.00261.

In turn, `Cc1ccc(NC(=O)CCCCCN2C(=O)c3ccccc3C2=O)nc1` registered a z-score of -0.213.

Compound `O=C(Nc1ccccc1C(=O)NCC1CCCO1)c1ccccc1` (stereo not given) displayed a z-score of -0.185.

Regarding `O=C(Cn1c(CN2CCCCC2)nc2ccccc2c1=O)NCc1ccco1`, the z-score turned out to be 0.995.

`CC1OC2(OC1C)C(=O)Nc1ccccc12` (stereo not given): the z-score was 0.774.

Compound `CN1CCN(C(=O)CN(c2cccc(Cl)c2)S(=O)(=O)c2ccccc2)CC1` had a z-score of -0.681.

Turning to `Cc1c(C(=O)N2CCCC2)sc(NC(=O)c2ccccc2)c1C#N`, the z-score was -1.61.

`Cc1cc(Cl)ccc1N(CC(=O)N=Nc1c(O)[nH]c2ccccc12)S(C)(=O)=O` came in with a z-score of 0.226.

In the case of `Nc1ccc(-c2cnc(-c3ccc(N)cc3)nc2)cc1`, the z-score came out at 0.25.

Compound `CCOC(=O)N1CCN(c2ccc3nnnn3n2)CC1` showed a z-score of 1.97.

Regarding `Nc1nc(-c2ccc(Cl)cc2)nn1C(=O)c1cccnc1`, the z-score was determined as 0.0443.

Turning to `O=C(N/N=C/c1ccncc1)c1ccccc1OCc1ccc(Br)cc1`, the z-score was -0.736.

For `CNc1ccccc1C(C)(C)c1cc(-c2ccc(F)cc2)no1`, the z-score is -0.295.

Regarding `Nc1ccc(S(=O)(=O)c2cccc(N)c2)cc1`, the z-score is -0.219.

In turn, `Cc1ccccc1C(=O)N1CCN(c2nc(N3CCOCC3)nc(N3CCOCC3)n2)CC1` returned a z-score of 0.365.

As to `CCSc1ncnc2sc3c(c12)CCC3`, the z-score is -0.0891.

`N#Cc1ccsc1NC(=O)CN1CCN(S(=O)(=O)c2ccccc2C(F)(F)F)CC1` had a z-score of -0.938.

Compound `CCOCCCNC(=O)CSc1ccccc1` had a z-score of 0.204.

On to `CCCNC(=O)CSc1nnc(C)s1`, for which the z-score came out at 0.0495.

On to `COC(=O)c1ccc(C(=O)OC)c(NC(=O)CN2CCN(c3ccccc3OC)CC2)c1`, for which the z-score was -0.601.

Regarding `CCOC(=O)Cn1c(Br)nc2c1c(=O)[nH]c(=O)n2C`, the z-score was -0.0622.

In the case of `CC(=O)Nc1ccc(OCC(O)Cn2nc(C)c(C(C)=O)c2C)cc1` (stereo not given), the z-score amounted to 0.566.

`C=CCc1cc(OC)ccc1OCCOCCC(C(=O)OCC)C(=O)OCC` gave a z-score of -0.251.

For the compound `C=CCn1c(SCc2nc3ccccc3[nH]2)nnc1-c1ccc(OC)cc1`, the z-score was -0.057.

For the compound `Cc1ccc(-c2nc(NC(=O)c3nn(C)cc3[N+](=O)[O-])sc2C)cc1C`, the z-score came to 0.0802.

In the case of `CCOC(=O)c1ccc(NC(=O)C(C)NS(=O)(=O)c2ccc(OC)cc2)cc1` (stereo not given), the z-score is -0.663.

On to `Cn1cc([N+](=O)[O-])c(C(=O)N(Cc2ccccc2)Cc2ccccc2)n1`, for which the z-score is -1.5.

The compound `CC(NC(=O)COc1ccccc1-c1ccccc1)c1ccccc1` (stereo not given) had a z-score of -0.192.

In turn, `Cc1ccc(NC(=O)CSc2nn(-c3ccc(Cl)cc3)c(=S)s2)cc1S(=O)(=O)N(C)C` came in with a z-score of 0.338.

On to `COc1ccc(OC)c(S(=O)(=O)NCc2cccnc2)c1`, for which the z-score amounted to 0.187.

In the case of `O=C(NC(=S)Nc1ccc(S(=O)(=O)Nc2nccs2)cc1)c1cccc(F)c1`, the z-score is -0.159.

As for `CCOc1ccccc1C1CC(=O)NC(SCC)=C1C#N` (stereo not given), the z-score was -1.6.

As to `CCSc1nc(=O)n(-c2ccccc2)c(C)c1C(C)=O`, the z-score was -0.368.

Compound `N#C/C(=C\c1c[nH]c2ccccc12)c1nnc2n1CCCCC2` showed a z-score of -0.167.

The compound `Cc1cc2cc3c(cc2nc1SCC(=O)Nc1nc(C)c(C)s1)OCO3` returned a z-score of -0.138.

`CCOCCCNc1nc2ccccc2[nH]1` showed a z-score of -0.0367.

Regarding `Cc1cc(C)c(N2CCN(S(=O)(=O)N3CCCCCC3)CC2)c(C)c1`, the z-score is -0.176.

On to `Cc1ccc(S(=O)(=O)Nc2ccc(-c3cn4ccc(C)cc4n3)cc2)cc1`, for which the z-score was -0.0809.

For the compound `COc1ccc(CN(C(=O)CN2C(=O)C(C)Oc3ccccc32)C2CCCC2)c(OC)c1` (stereo not given), the z-score was -0.86.

`Cc1nnc(SCc2ccc(F)cc2)n1NC/C=C/c1ccccc1` displayed a z-score of -0.404.

Turning to `CC(C)CN(C(=O)COC(=O)c1ccccc1SCC(=O)NC1CCCCCC1)C1CCS(=O)(=O)C1` (stereo not given), the z-score is -0.47.

Turning to `O=C(Cc1ccccc1)Nc1ccccc1N1CCOCC1`, the z-score came to 0.678.

The compound `COc1ccc(C(=O)N2CCN(S(=O)(=O)c3ccccc3)CC2)c(OC)c1` yielded a z-score of -0.362.

Turning to `CCN(CC)S(=O)(=O)c1ccc(Cl)c(NC(=O)c2cc(Cl)cc(Cl)c2)c1`, the z-score was 0.00219.

On to `CCn1c(-c2csc(-c3ccc(Cl)cc3)n2)n[nH]c1=S`, for which the z-score came out at 1.31.

Compound `O=C(CCn1c(=O)sc2ccccc21)NCCN1CCOCC1` gave a z-score of 0.052.

In turn, `COc1ccc(CCn2c(N3CCN(Cc4ccccc4)CC3)nc3c2c(=O)[nH]c(=O)n3C)cc1` yielded a z-score of -0.247.

In turn, `CCCCn1c(CN2CCN(c3ccc(F)cc3)CC2)nc2c1c(=O)n(C)c(=O)n2C` returned a z-score of -0.751.

As for `Cn1cc(C(=O)Nc2ccc(F)c(Cl)c2)cn1`, the z-score worked out at 0.00201.

On to `O=C(NCCN1C(=O)S/C(=C\c2cccnc2)C1=O)c1cccc(OC(F)F)c1`, for which the z-score is -0.253.

Consider `Cc1nnc(SCC(=O)NCCN2C(=O)CSC2=O)s1`, for which the z-score is 0.195.

`CCN(CC)S(=O)(=O)c1cccc(-c2nnc(SCC(=O)NCCC3=CCCCC3)n2N)c1` had a z-score of -0.545.

On to `COC(=O)C(NC(=O)c1ccccc1)(Nc1nc(C)cs1)C(F)(F)F` (stereo not given), for which the z-score was found to be 0.511.

Compound `Cc1cc(=O)[nH]c(SCC(=O)c2ccc(C(C)C)cc2)n1` registered a z-score of -0.894.

`CCOc1ccc(OCCOCCNCCOC)cc1`: the z-score is 0.0989.

For the compound `Cc1ccc2nc(SCC(=O)c3cc(C)n(C)c3C)[nH]c2c1`, the z-score was -1.1.

`CCCc1nnc(NC(=O)CCN2C(=O)c3ccccc3C2=O)s1`: the z-score was 0.196.

The compound `O=C(NCCN1CCCCC1)Nc1ccccc1` had a z-score of 0.0513.

On to `CCOC(=O)CNC(=O)/C=C/c1c(Cl)cccc1Cl`, for which the z-score was -0.181.

Consider `CC(C)Cc1nnc(NC(=O)CSc2ccccn2)s1`, for which the z-score is -1.08.

For the compound `COc1cc(/C=N/NC(=O)c2cccnc2)ccc1OCC(=O)N1CCOCC1`, the z-score was -0.3.

As for `CCC(C)(C)NC(=O)C(c1ccc(C)o1)N(C(=O)c1csnn1)c1cccc(F)c1` (stereo not given), the z-score is 0.38.

On to `CCOC(=O)C1=C(C)NC(=O)NC1C` (stereo not given), for which the z-score is 0.203.

As to `CCn1c(-c2ccccc2Cl)nn(CC(=O)Nc2cc(Cl)ccc2Cl)c1=S`, the z-score was found to be 0.0802.
